Measurements: patent publication US20240392020A1 (JIANGSU HENGRUI PHARMACEUTICALS, published 2024)

Key:
Light chain of J1 = target: T1, Light chain of J1; assay: mass spectrometry of the product of four co-transfected chains of HJ-3; mispairing of heavy chain 1 with light chain 4
T1 construct: single antibody chain, co-expressed; also called HJ-1-L2; HJ-3-L2

hP40 [1] = target: T2, hP40 (human, UniProt P29460 23-328); assay: SPR Biacore T200, antibody captured on Protein A chip
T2 construct: bought
T2 sequence (looked up): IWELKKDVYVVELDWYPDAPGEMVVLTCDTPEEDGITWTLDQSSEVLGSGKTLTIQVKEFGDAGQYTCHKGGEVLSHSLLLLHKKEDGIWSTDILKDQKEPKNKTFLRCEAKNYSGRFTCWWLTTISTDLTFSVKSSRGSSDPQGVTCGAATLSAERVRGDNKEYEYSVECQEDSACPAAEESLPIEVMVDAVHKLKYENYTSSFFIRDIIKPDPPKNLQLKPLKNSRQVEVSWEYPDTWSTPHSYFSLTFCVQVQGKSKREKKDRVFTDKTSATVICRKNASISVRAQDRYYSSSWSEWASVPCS

hP40 [2] = target: T2, hP40; assay: ELISA
hP40 [3] = target: T2, hP40; assay: SPR Biacore T200, antibody captured on Protein A chip; remark: listed apart in the source
hP40 [4] = target: T2, hP40; assay: ELISA; remark: listed apart in the source
HJ-4-L1 = target: T3, HJ-4-L1; assay: mass spectrometry of the product of four co-transfected chains of HJ-4; mispairing of heavy chain 1 with light chain 4
T3 construct: also called chain 4 of HJ-4

T1 sequence (light, as listed by the source): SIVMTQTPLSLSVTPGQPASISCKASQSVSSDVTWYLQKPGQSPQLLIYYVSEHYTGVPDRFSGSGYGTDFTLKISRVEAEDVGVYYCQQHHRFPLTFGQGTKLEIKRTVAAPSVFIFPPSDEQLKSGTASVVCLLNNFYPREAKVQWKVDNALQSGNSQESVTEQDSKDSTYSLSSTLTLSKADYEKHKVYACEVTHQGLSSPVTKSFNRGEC

binding result (Light chain of J1): no binding
B1: HJ-3-H1 (heavy chain of H0, knob, CH1 replaced with T.10-L1) (other)
heavy: EVQLVESGGGLVQPGGSLRLSCAASGFTFSHYYMAWVRQAPGKGLEWVTSISYEGDITYYGDSVKGRFTISRDNSKNTLYLQMNSLRAEDTATYYCASQTLRESFDYWGQGTLVTVSSGGGGSGIPPKIECLPIDISIDEGKVLTVASAFTGEPTPEVTWSTGGRKIHSQEQGRFHIENTDDLTTLIIKDVQKQDGGLYTLTLRNEFGSDSATVNIHIRSI[human IgG1 Fc with changes and a few adjoining residues cut from this listing]
notes: single antibody chain, co-expressed

Kd (hP40 [1]): 0.0689 nM
koff (hP40 [1]): 0.000109 s⁻¹
kon (hP40 [1]): 1.59e+06 M⁻¹ s⁻¹
EC50 (hP40 [2]): 0.0888 nM
Kd (hP40 [3]): 0.0793 nM
koff (hP40 [3]): 0.000114 s⁻¹
kon (hP40 [3]): 1.44e+06 M⁻¹ s⁻¹
EC50 (hP40 [4]): 0.06 nM
B2: Umab (antibody, human IgG1, kappa)
heavy: EVQLVQSGAEVKKPGESLKISCKGSGYSFTTYWLGWVRQMPGKGLDWIGIMSPVDSDIRYSPSFQGQVTMSVDKSITTAYLQWNSLKASDTAMYYCARRRPGQGYFDFWGQGTLVTVSS[human IgG1 constant region cut from this listing]
light: [about 200 residues cut from this listing]
notes: also called U0

binding result (HJ-4-L1): no binding
B3: HJ-4-H2 (other)
heavy: EVQLVQSGAEVKKPGSSVKVSCKASGYTFSNYLIEWVRQAPGQGLEWIGVIDPGVGDTNYNENFKGRATLTADKSTSTAYIELSSLRSEDTAVYYCAREDNTGTAFDYWGQGTTVTVSSGGGGSGIPPKIECLPIDISIDEGKVLTVASAFTGEPTPEVTWSTGGRKIHSQEQGRFHIENTDDLTTLIIKDVQKQDGGLYTLTLRNEFGSDSATVNIHIRSI[human IgG1 Fc with changes and a few adjoining residues cut from this listing]
notes: also called chain 1 of HJ-4

Like-named read-outs stand apart in the source and are kept apart here. Each block holds one binder with its values, some of them ahead of it.
